{
  "source": "PubChem BioAssay (NCI)",
  "test_system": "SR leukemia",
  "experiment": "NCI anticancer screen, dose series, 48 h",
  "note": "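Five concentrations, 48 hours, 96-well plates. TGI denotes the concentration required for complete inhibition of growth.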 Some entries of the source have several records that differ or are many. The list is limited to them. An entry can have further records. The tests behind the records often covered other concentration ranges, which the source does not state; a value can be the end of its range.",
  "data": [
    {"smiles": "O=C(/C=C\\c1ccc(Cl)c(Cl)c1)c1ccc(Cl)cc1Cl", "values": [
      {"measurement": "TGI", "value": "7.45 µM and > 100 µM"}
    ]}
  ]
}
